{
  "source": "patent US20240139148A1",
  "about": "“COMPOSITIONS AND METHODS FOR TREATING NON-TUBERCULOUS MYCOBACTERIAL INFECTIONS” (priority 2021, published 2024)",
  "key": {"[1]": {"system": "WT Mabs ATCC 19977", "assay": "Acute SCID mouse model of MABSC infection", "conditions": "SCID mice; 200 mg/kg gavage; vs antibiotics alone"}, "[2]": {"system": "WT Mabs ATCC 19977", "assay": "Chronic SCID mouse model of MABSC infection", "conditions": "SCID mice; 50 mg/kg gavage every other day for 28 d"}},
  "data": [
    {"smiles": "c1cc([C@H]2CC[C@]3(CC2)OO[C@]2(O3)C3CC4CC(C3)CC2C4)ccc1OCCN1CCOCC1", "note": "[OZ439, artefenomel]", "values": [
      {"measurement": "adjunct efficacy in combination with antibiotics (AMK, AZI, IMI, CFZ)", "setting": "[1]", "result": "potentiated the activity of AZI, IMI and CFZ in the spleen and/or lung"},
      {"measurement": "adjunct efficacy in combination with antibiotics (AMK, AZI, IMI, CFZ)", "setting": "[2]", "result": "potentiated the activity of AZI in the liver and that of AMK in the lung and liver"}
    ]}
  ]
}
